Measurements published in PubChem BioAssay AID1745845 (National Center for Advancing Translational Sciences (NCATS), 2022).
Out of some 360,000 compounds screened, about 2,600 (0.72%) were called active. This list was built around the results that the source calls inconclusive (neither active nor inactive); the mix of calls is not that of the screen. The call rests on the fitted dose curve; in most records, active means well fitted inhibition curve with a large enough effect; inconclusive means small, poorly fitted or top-dose-only effect; inactive means no such curve, though single readings can be large or run the other way. Potencies of inconclusive entries are doubtful fits and often do not repeat.

assay: Primary qHTS for Inhibitors of ATXN expression; settings: HEK-293 ATXN2-luciferase reporter, luminescence, 24 h; series mostly up to 57 µM; further: nearly all actives have a fitted effect of over 55% in size
How it was run: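 qHTS (up to 57 uM final) was run with 24 h compound exposure of reporter cells at 37 °C. Each well was multiplexed: SteadyGlo luminescence measured ATXN2-luciferase expression after a fluorogenic Gly-Phe-AFC viability readout (25 uM final).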
Potency means the concentration at half of the fitted maximal effect; tags describe the fitted curve by direction and shape.

Potency, active:
CCC(=O)Nc1cccc(C(=O)/C=C/c2cc(Br)ccc2OC)c1 15.8 µM
COc1ccc(C2CC(c3cccs3)=NN2C(=O)CCl)cc1OC (stereo not drawn) 12.6 µM

Potency, inactive:
COc1cc(OC)cc(-c2c(C#Cc3ccsc3)c3cc(-c4ccc(OC)nc4)ccc3n2C)c1
CCOC(=O)/C=C/C(=O)N1CCN(C(=O)/C=C/C(=O)OCC)CC1
COc1ccc(-n2c(Cc3cccn3C)nnc2SCC(=O)Nc2cccc(OC)c2)cc1
CNc1cc(C(F)(F)F)nc(-c2ccccn2)n1
O=c1ccc2cc(S(=O)(=O)NCc3ccccc3)ccc2[nH]1
O=C(Nc1nc2ccccc2n1CCN1CCCCC1)c1ccco1
Cc1ccc(S(=O)(=O)N2CCCOC2CNC(=O)C(=O)NCc2ccccc2C)cc1 (stereo not drawn)
Cc1cccc(-n2c(-c3ccco3)nc3c(cnn3-c3ccc(F)cc3)c2=O)c1
NC(=O)/C=C\C(=O)Nc1cccc(C(F)(F)F)c1
Cc1ccc(S(=O)(=O)N2C[C@H]3C(=O)C[C@@H](c4ccccc4)N(S(=O)(=O)c4ccccc4)[C@H]3C[C@H]2c2ccccc2)cc1
Cc1cccc(C(=O)OCC(=O)Nc2ccc3c(c2)OCCO3)c1O
O=C(CCCc1nc2ccccc2s1)N1CCN(c2ccccc2)CC1
Cc1ccc(-c2cc(C(=O)OCC(=O)c3ccccc3)c3cccc(Cl)c3n2)cc1
Cc1ccc(S(=O)(=O)N/N=C/c2c(F)cccc2Cl)cc1
COc1ccc(-c2nnn(CC(=O)N3CCN(c4ccc(F)cc4)CC3)n2)cc1
N=c1n(CCO)c2ccccc2n1Cc1ccccc1F
CCc1cccc(NC(=O)COC(=O)/C=C/c2cccs2)c1
COC(c1ccccc1)c1nnc(CCC(=O)NCCCc2ccccc2)o1 (stereo not drawn)
O=C(Nc1ccc(C(=O)N2CCOCC2)cc1)C1CC1
COc1ccc(CN2C(=O)C(C)Nc3ncnc(N4CCc5ccccc5C4)c32)cc1 (stereo not drawn)
O=C(Nc1cccc2ccccc12)N1CCN(Cc2ccccc2)CC1
COc1ccc(-c2cccc(NC(=O)c3cccs3)c2)nn1
CCN1CCN(CCCNC(=O)Cn2c(-c3cccs3)cc3ccccc32)CC1
c1ccc(Cn2c(CN3CCCC3)nc3ccccc32)cc1

Potency, inconclusive:
O=C(NNC(=O)c1ccccc1O)c1ccc(-c2ccc([N+](=O)[O-])cc2)o1 28.2 µM [inhibitor, single point]
Cc1cc(NC(=O)c2sccc2C)n(-c2nc3ccccc3[nH]2)n1 39.8 µM [inhibitor, single point]
N#CC(C#N)=NNc1ccc2cn[nH]c2c1 15.8 µM [inhibitor, partial curve]
CC(C)n1c(CN(C)Cc2ccccc2)nc2c1c(=O)n(C)c(=O)n2C 39.8 µM [inhibitor, single point]
Cc1c(C(=O)C(=O)N2c3ccccc3CC2C)c2ccccc2n1C (stereo not drawn) 26.7 µM [inhibitor, partial curve, poor fit]
Cc1ccc(C)c(C(C)NC(=S)NCc2ccc(F)cc2)c1 (stereo not drawn) 20 µM [inhibitor, single point]
CN(C(=O)COC(=O)/C=C/c1cccs1)c1c(N)n(Cc2ccccc2)c(=O)[nH]c1=O 5.01 µM [inhibitor, full curve]
CCC1=NN(C(=O)c2ccc(Br)cc2)C(O)(c2ccccc2)C1 (stereo not drawn) 7.94 µM [inhibitor, partial curve, poor fit]
CCN(Cc1ccccc1)S(=O)(=O)c1ccc2[nH]c3c(c2c1)CCCCC3 39.8 µM [inhibitor, single point]
Cc1ccc(C)c(N2CCN(C(=O)C3CCN(S(=O)(=O)c4cccc5nsnc45)CC3)CC2)c1 11.2 µM [inhibitor, partial curve, poor fit]
CN1CCN(C2=Cc3ccc(Cl)cc3Sc3ccc(F)cc32)CC1 28.2 µM [inhibitor, partial curve, poor fit]
Cn1c(=O)c(C(=O)COc2ccc(F)cc2Cl)c(N)n(Cc2ccccc2)c1=O 11.2 µM [inhibitor, partial curve, poor fit]
c1ccc(Cn2nnc3c(NCc4ccc5c(c4)OCO5)nc(C4CC4)nc32)cc1 14.1 µM [inhibitor, partial curve]
CN1CCN(C2Cc3ccccc3Sc3cc(C(F)(F)F)ccc32)CC1 (stereo not drawn) 31.6 µM [inhibitor, single point]
Cc1cccc(NCC(=O)N/N=C/c2cccc(Br)c2)c1 0.844 µM [inhibitor, partial curve, poor fit]
CN(C1=C(NC(=O)c2ccc(Cl)cc2)C(=O)c2ccccc2C1=O)c1ccccc1 10 µM [inhibitor, partial curve]
Cc1ccc(C)c(N(C)S(=O)(=O)c2ccc3[nH]cc(C(=O)NC4CCCC4)c(=O)c3c2)c1 31.6 µM [inhibitor, single point]
Cc1ccc(NS(=O)(=O)c2ccc3[nH]c4c(c3c2)CCCCC4)cc1 39.8 µM [inhibitor, single point]
CCC(C)C1C(C#N)=C(N)Oc2n[nH]c(-c3ccccc3)c21 (stereo not drawn) 39.8 µM [inhibitor, single point]
COc1ccc(CCn2c(=N)c(C(=O)NCc3ccco3)cc3c(=O)n4cccc(C)c4nc32)cc1 14.1 µM [inhibitor, partial curve, poor fit]
O=C(Oc1c(CN2CCOCC2)cc(Cl)c2cccnc12)c1cccs1 8.44 µM [inhibitor, full curve, poor fit]
O=[N+]([O-])c1ccc(NC(=S)NCc2ccc(F)cc2)cc1 39.8 µM [inhibitor, single point]
Cc1c(Cl)c([N+](=O)[O-])nn1CCCC(=O)O 33.6 µM [inhibitor, partial curve, poor fit]
COc1ccccc1[C@H](c1cccc2ccccc12)[C@@](C)(C#N)C(=O)N1CCC(c2cccc(C(F)(F)F)c2)CC1 8.63 µM [inhibitor, partial curve]
CN(c1ccc(C(=O)NCCc2ccccc2)cc1)S(C)(=O)=O 28.2 µM [inhibitor, single point]
Cc1ccc(C)c(NC(=O)C(Sc2nc3ccccc3c(=O)n2CC(C)C)c2ccccc2)c1 (stereo not drawn) 14.1 µM [inhibitor, partial curve]
COc1ccc2nc(C)c3c(c2c1)OC(C(C)(Cl)Br)C3 (stereo not drawn) 8.91 µM [inhibitor, partial curve, poor fit]
COc1ccccc1COCC(O)CNCCc1ccc(C(F)(F)F)cc1 (stereo not drawn) 20 µM [inhibitor, partial curve, poor fit]
CCOc1ccc(OCc2cccc(C(=O)N3CCOCC3)c2)cc1 5.62 µM [inhibitor, partial curve, poor fit]
O=C(Nc1ccc(Cl)cn1)c1ccc(-c2ccc(Cl)c(Cl)c2)o1 39.8 µM [inhibitor, single point]
CCCCCc1cc(=O)oc2c(C(CCN3CCCC(C)C3)c3cc(OC)c(OC)c(OC)c3)c(OC)cc(OC)c12 (stereo not drawn) 39.8 µM [inhibitor, single point]
CN(C)CCNc1ncnc2oc(-c3ccccc3)c(-c3ccccc3)c12 39.8 µM [inhibitor, single point]
CCC(CC)C(=O)Nc1nc(-c2ccc3c(c2)CCN3C(=O)C2CC2)c(C)s1 39.8 µM [inhibitor, partial curve, poor fit]
COc1ccc(Cl)cc1NC(=O)Cc1coc2c(C)c(C)ccc12 39.8 µM [inhibitor, partial curve, poor fit]
O=[N+]([O-])CC(c1ccc(F)cc1)c1c[nH]c2ccccc12 (stereo not drawn) 39.8 µM [inhibitor, partial curve, poor fit]
CCOC(=O)c1c(C)[nH]c(C)c1S(=O)(=O)N1CCC(C(=O)N2CCN(c3cccc(C)c3C)CC2)CC1 28.2 µM [inhibitor, single point]
CC1(C(=O)Nc2cnc3ccccc3c2)CCN1C(=O)CC(c1ccccc1)c1ccccc1 (stereo not drawn) 31.6 µM [inhibitor, single point]
COc1ccc(N=Cc2cc3c(cc2O)OC(N)=C(C#N)C3c2ccccc2)cc1 (stereo not drawn) 20 µM [inhibitor, partial curve]
CC(=O)Nc1ccc(S(=O)(=O)Nc2ccc(N3CCCCC3)cc2)cc1 39.8 µM [inhibitor, single point]
O=C1c2c(Br)c(Br)c(Br)c(Br)c2C(=O)N1c1ccccn1 23.8 µM [inhibitor, partial curve, poor fit]
O=C(CCNS(=O)(=O)c1ccc(OC(F)(F)F)cc1)N1CCN(C/C=C/c2ccccc2)CC1 31.6 µM [inhibitor, partial curve, poor fit]
COc1ccc(-c2nc3cnccn3c2NCc2ccccc2)cc1SC1CCCCC1 39.8 µM [inhibitor, single point]
